Measured values from the antibiotic and cytotoxicity screens of Wong et al. (2023).
Some of the results follow.

Assays:
HSkMC = human skeletal muscle cells; assay: cytotoxicity call (relative viability < 0.9); details: 10 µM
HepG2 = assay: cytotoxicity call (relative viability < 0.9); details: 10 µM
S. aureus RN4220 = assay: growth inhibition call (relative growth <= 0.2); details: 50 µM

CCO[C@@H]1OC(C(=O)N2CCN(Cc3ccccc3)CC2)=C[C@H](c2csc3ccccc23)[C@H]1CCCOC(=O)NCCCCCC(=O)NO
inactive: cytotoxicity call (HSkMC) | cytotoxicity call (HepG2) | growth inhibition call (S. aureus RN4220)

Cc1nc2c(c(C)nn2-c2ccccc2)c(C)c1CN
inactive: cytotoxicity call (HSkMC) | cytotoxicity call (HepG2) | growth inhibition call (S. aureus RN4220)

Cc1ccc(S(=O)(=O)Nc2ccc3c(c2)C(=O)N([C@@H](C)CO)C[C@@H](C)[C@@H](CN(C)CC2CC2)O3)cc1
inactive: cytotoxicity call (HSkMC) | cytotoxicity call (HepG2) | growth inhibition call (S. aureus RN4220)

COc1ccccc1C#Cc1cnc2c(c1)C(=O)N([C@@H](C)CO)C[C@@H](C)[C@H](CN(C)C(=O)CN(C)C)O2
inactive: cytotoxicity call (HSkMC) | cytotoxicity call (HepG2) | growth inhibition call (S. aureus RN4220)

C[C@H](CO)N1C[C@H](C)[C@@H](CN(C)C(=O)Nc2ccc(C(F)(F)F)cc2)Oc2c(NC(=O)Nc3ccc(F)cc3)cccc2C1=O
inactive: cytotoxicity call (HSkMC) | cytotoxicity call (HepG2) | growth inhibition call (S. aureus RN4220)

C[C@H]1CN([C@@H](C)CO)S(=O)(=O)c2ccc(C#Cc3ccccc3)cc2O[C@H]1CN(C)C(=O)Cc1ccccn1
inactive: cytotoxicity call (HSkMC) | cytotoxicity call (HepG2) | growth inhibition call (S. aureus RN4220)

O=C(C[C@@H]1CC[C@@H]2[C@H](COC[C@H](O)CN2S(=O)(=O)c2ccccc2)O1)NCCN1CCCCC1
inactive: cytotoxicity call (HSkMC) | cytotoxicity call (HepG2) | growth inhibition call (S. aureus RN4220)

NC(=O)NC(CCC(=O)O)C(=O)O (stereo unspecified)
inactive: cytotoxicity call (HSkMC) | cytotoxicity call (HepG2) | growth inhibition call (S. aureus RN4220)

CCCC#Cc1ccc2c(c1)O[C@H](CN(C)C(=O)c1cnccn1)[C@H](C)CN([C@@H](C)CO)S2(=O)=O
inactive: cytotoxicity call (HSkMC) | cytotoxicity call (HepG2) | growth inhibition call (S. aureus RN4220)

CN(C)CCCNC(=O)C[C@H]1C=C[C@@H](NC(=O)Cc2cccnc2)[C@H](CO)O1
inactive: cytotoxicity call (HSkMC) | cytotoxicity call (HepG2) | growth inhibition call (S. aureus RN4220)

Cc1ccc(S(=O)(=O)Nc2ccc3c(c2)C(=O)N([C@H](C)CO)C[C@@H](C)[C@H](CN(C)CC2CC2)O3)cc1
inactive: cytotoxicity call (HSkMC) | cytotoxicity call (HepG2) | growth inhibition call (S. aureus RN4220)

Cc1ccc(S(=O)(=O)Nc2ccc3c(c2)C(=O)N([C@@H](C)CO)C[C@@H](C)[C@@H](CN(C)S(C)(=O)=O)OCCCC[C@@H](C)O3)cc1
inactive: cytotoxicity call (HSkMC) | cytotoxicity call (HepG2) | growth inhibition call (S. aureus RN4220)
